Data published in PubChem BioAssay AID1345083 (National Center for Advancing Translational Sciences (NCATS), 2018).
About 6,200 (6.6%) of roughly 94,000 compounds were called active. The inconclusive results got no clear call from the source; some entries with a clear call stand among them for comparison. Calls come from the whole dose curve; as a rule, active = well fitted inhibition curve with a large enough effect; inconclusive = small, poorly fitted or top-dose-only effect; inactive = flat fitted curve, though single readings scatter. A potency beside an inconclusive call is a rough fit, not a confirmed value.

Experiment: Cytotoxic Profiling in HEK 293 Cell Line of Diverse Libraries Using Quantitative High-Throughput Screening; note: nearly all actives have a fitted effect of over 60% in size
Details: HEK 293 viability, ATP luminescence (CellTiter-Glo), 48-72 h; activity change, negative = cytotoxicity: at 115 µM (top of the series) unless noted; series mostly up to 115 µM
Outline: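 ATP-coupled CellTiter-Glo luminescence served as viability read-out, recorded 10 min after reagent addition at room temperature. HEK 293 cells, 250 cells/well, had been incubated with pintool-transferred compound for 48 or 72 hr at 37 degree Celsius.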
% is set by controls: 0 for no effect and ±100 for the full control effect; potency is the fitted concentration of half-maximal effect; tags give direction and shape of the fitted curve.

Compound	activity change, negative = cytotoxicity	outcome	Potency
COc1ccc(S(=O)(=O)Nc2ccc3n(c2=O)C[C@H]2C[C@@H]3CN(C(=O)Nc3cc(OC)cc(OC)c3)C2)cc1	inactive: -2.05%	–	–
CCN(CCNC(=O)C1Cn2cccc2C(=O)N1C)Cc1ccccc1 (stereo not given)	–	inactive	–
O=C(NCc1ccccc1)c1cnc2n1CCN(Cc1cccs1)CC2	–	–	inconclusive: 44.7 µM [inhibitor, full curve, poor fit]
Cc1cccc(Nc2nc(N)nc(CN3CC[C@@](O)(C4CCC4)[C@H](C)C3)n2)c1	–	–	inconclusive: 50.1 µM [inhibitor, partial curve, poor fit]
NC(=O)Cn1ccc2cc(OCC3CCN(C(=O)CCc4ccccc4)CC3)cnc21	–	–	inconclusive: 63.1 µM [inhibitor, full curve]
O=C(NCc1ccccc1)N1CCCC(c2noc(COc3ccccc3)n2)C1 (stereo not given)	–	–	inconclusive: 20 µM [inhibitor, full curve]
CC(C)C(=O)Nc1ccc([C@H]2OCC(=O)N(Cc3ccccc3)[C@@H]2CO)cc1	–	–	inconclusive: 56.2 µM [inhibitor, single point]
O=C(NC1CCCCC1)C1CN(C(=O)c2ccccc2F)CC12CCOCC2 (stereo not given)	inactive: 0.348%	–	–
Cc1noc2c(-c3cccnc3NC3CCN(C)CC3)cc(-c3ccc(Cl)cc3)nc12	–	–	active: 89.1 µM
COc1ccc2[nH]c3c(c2c1)CCN(C)C31CCN(C(=O)C2CCCC2)CC1	–	–	inconclusive: 44.7 µM [inhibitor, partial curve]
COc1ccccc1Nc1ccnc(N2CCC(NC(=O)C3CC3)CC2)n1	inactive: -21.7%	–	–
CCN(C(=O)CCC(=O)N1CCC(c2nc(C(=O)N3CCCC3)c(C)o2)CC1)c1ccccc1	–	–	inconclusive: 44.7 µM [inhibitor, partial curve]
O=C(c1ccc(C(F)(F)F)cc1)N1CCC(c2nn(-c3ccc(F)cc3)c(=O)[nH]2)CC1	–	–	inconclusive: 79.4 µM [inhibitor, partial curve]
CC(C)=CCC1(CO)CCCN(Cc2cscn2)C1 (stereo not given)	inactive: -19.5%	–	–
COc1cccc(Nc2cc3c(cn2)CN(Cc2ccncc2)CCN3)c1	–	–	inconclusive: 112 µM [inhibitor, partial curve, poor fit]
Cc1cccc(OCCc2noc(C3CN(C(=O)c4cnccc4C)C3)n2)c1	–	–	inconclusive: 89.1 µM [inhibitor, partial curve, poor fit]
Cc1nc(CC2CCN(C(=O)Cn3cccc(C(F)(F)F)c3=O)CC2)no1	inactive: -3.29%	–	–
CCn1ncc(CN2CC[C@@H]3C(=O)NCCCCCCN(Cc4ccncc4)[C@@H]3C2)c1C	inactive: -4.79%	–	–
Cc1nc(N2CCC(NC(=O)c3nn(C)c4ccccc34)CC2)cc(C(F)(F)F)n1	–	–	active: 44.7 µM
CCN(CC)C(=O)c1cc2c(s1)CCC(C(=O)O)C2 (stereo not given)	inactive: 7.72%	–	–
COc1cccc(OCC(=O)c2ccc3c(c2)N(C(C)C(=O)NCCc2ccccc2)C(=O)CO3)c1 (stereo not given)	–	–	inconclusive: 31.6 µM [inhibitor, partial curve]
COc1ccc(C(=O)N2CCCC3(C2)NC(=O)N(Cc2ccc(Cl)cc2)C3=O)cc1 (stereo not given)	–	–	active: 50.1 µM

Compound	activity change, negative = cytotoxicity	outcome	Potency
COc1cccc(CNC(=O)CN2C(=O)NC3(CCC(C)CC3)C2=O)c1 (stereo not given)	inactive: 8.13%	–	–
CCCS(=O)(=O)N1CC(N(Cc2cccnc2)CC(C)C)C1	inactive: -27.3%	–	–
Cn1cccc1CN1CCC2(C1)C(=O)N(c1ccccc1)c1ccccc12 (stereo not given)	–	–	inconclusive: 112 µM [inhibitor, single point]
CC(c1ccccc1)N1CCN(c2cccc(CN(C)[S+](C)(=O)[O-])c2F)CC1 (stereo not given)	–	–	active: 79.4 µM
O=C(NCC(F)(F)F)C1CCCN1c1nc2ncccc2o1 (stereo not given)	–	inactive [at 172 µM]	–
O=C(Cc1c[nH]c2ncc(-c3cccnc3)cc12)NCCc1ccccc1	–	–	inconclusive: 112 µM [inhibitor, partial curve]
CCn1c(=O)c2c(cc(C)n2C)n(CC(=O)Nc2c(C)cccc2C)c1=O	inactive: -0.783%	–	–
CC1CCN(c2ccc(CNC(=O)CC3=C4CCCCC4N(C)C3=O)cc2)CC1 (stereo not given)	–	–	inconclusive: 89.1 µM [inhibitor, single point]
COc1ccc(Cl)cc1-c1nc(C2CC(=O)N(C3CCCCC3)C2)no1 (stereo not given)	–	–	inconclusive: 44.7 µM [inhibitor, partial curve, poor fit]
O=C1[C@H]2CN(Cc3ccc(F)cc3)C[C@H]2C(=O)N1Cc1ccc2c(c1)OCO2	–	–	inconclusive: 56.2 µM [inhibitor, single point]
O=C1c2ccccc2CN1C1CCN(Cc2cccc3ccccc23)CC1	–	–	inconclusive: 89.1 µM [inhibitor, single point]
COc1ccc(C(=O)N[C@@H]2CN(C(=O)Nc3cccc(C#N)c3)CCC[C@H]2O)cc1	–	–	inconclusive: 100 µM [inhibitor, partial curve, poor fit]
OC(c1cccc(C(F)(F)F)c1)c1nc(Nc2ccncc2)n[nH]1 (stereo not given)	–	–	inconclusive: 56.2 µM [inhibitor, partial curve, poor fit]
COc1cncc(Nc2cnc3ccc(-c4ccccc4OC)nn23)c1	–	–	inconclusive: 79.4 µM [inhibitor, partial curve]
CNC(=O)c1cc(C)nc2onc(C3CCCN(C(=O)C4CCCC4)C3)c12 (stereo not given)	inactive: -12.4%	–	–
CN(C)Cc1cccc(-c2cc(-c3ccncc3)c3cncn3c2)c1	–	–	inconclusive: 112 µM [inhibitor, single point]
Cc1cc(-c2nc(-c3c(C)noc3C)cc3c2cc(C)n3CCN(C)C)ccn1	–	–	inconclusive: 112 µM [inhibitor, partial curve, poor fit]
O=C(C1CCCC1)N1CCCCCC1c1nnc(-c2ccccc2)o1 (stereo not given)	–	–	inconclusive: 100 µM [inhibitor, single point]
COCC1CN(C(C)=O)CC12CCN(C(=O)c1cccnc1C)CC2 (stereo not given)	inactive: -8.42%	–	–
O=C(Cc1ccccc1Cl)N1CCC(Cc2nc(-c3ccc(F)cc3)no2)CC1	–	–	inconclusive: 56.2 µM [inhibitor, partial curve, poor fit]
CC(=O)N1CCC(C(=O)N2CCC3(CC2)NC(=O)N(c2cccc(Cl)c2)N3)CC1	–	–	inconclusive: 50.1 µM [inhibitor, partial curve, poor fit]
CC(C)(O)CCc1ccc(C(=O)NCCSc2ccccn2)cc1	–	–	inconclusive: 89.1 µM [inhibitor, partial curve, poor fit]

Compound	activity change, negative = cytotoxicity	outcome	Potency
COC(=O)NCCNC(=O)c1cccc(-c2ccc(SC)cc2)c1	–	–	inconclusive: 89.1 µM [inhibitor, single point]
O=C(NCc1cccc(F)c1)N1CCC(N2CC3CC(C2)[C@H]2CCCC(=O)N2C3)CC1 (stereo not given in full)	inactive: -2.86%	–	–
COc1ccc(-c2cc3c(=O)n(CCNC(=O)c4ccco4)ccn3n2)cc1	–	–	inconclusive: 12.6 µM [inhibitor, full curve, poor fit]
COC[C@@H]1CN(C(=O)Cc2ccccc2Cl)C[C@H]1C(N)=O	inactive: -2.46%	–	–
CCN1c2cc(C(=O)NCc3ccccc3F)ccc2C(=O)N2CCCCCC21 (stereo not given)	–	–	inconclusive: 35.5 µM [inhibitor, full curve]
O=C(c1ccncc1)N1CCC(Oc2ccc(-c3noc(-c4ccccc4)n3)cc2)C1 (stereo not given)	–	–	inconclusive: 15.8 µM [inhibitor, full curve, poor fit]
Cc1noc2c(-c3ccnn3C)cc(-c3ccc(F)cc3)nc12	inactive: -21.4% [at 172 µM]	–	–
Cc1cc(S(=O)(=O)N2CCC(CC(=O)NCc3ccccc3)C2)ccc1F (stereo not given)	–	–	inconclusive: 70.8 µM [inhibitor, single point]
CCOC(=O)C1c2c(OC)ccc3c2C(=CC(C)(C)CO3)CN1Cc1ccc(NC(C)=O)cc1 (stereo not given)	–	–	inconclusive: 56.2 µM [inhibitor, partial curve, poor fit]
Cc1ccc(F)c(NC(=O)c2cc3c(N4CCSCC4)nc(C)cn3n2)c1	–	–	inconclusive: 35.5 µM [inhibitor, partial curve, poor fit]
COc1ccc(-c2nc(C3CC(=O)N(c4ccc(F)c(Cl)c4)C3)no2)c(OC)c1 (stereo not given)	–	–	inconclusive: 56.2 µM [inhibitor, partial curve, poor fit]
O=C(NC1CCCN(c2cc(-c3ccccc3)[nH]n2)C1)c1ccccc1Br (stereo not given)	–	–	inconclusive: 50.1 µM [inhibitor, partial curve, poor fit]
O=C(c1cnc2c(c1)N([S+](=O)([O-])c1cccnc1)CCC2)N1CCC(c2ccccc2)CC1	–	–	inconclusive: 79.4 µM [inhibitor, partial curve, poor fit]
CC(=O)Nc1ccc(-c2nnc3n2CCN(C(=O)c2c(C)noc2C)C3)cc1	–	inactive	–
Cc1ccc(CN2CC[C@@H]3[C@H]2C(=O)NC[C@H](CCC(=O)Nc2ccccc2)N3C)cc1	–	–	inconclusive: 100 µM [inhibitor, partial curve, poor fit]
COc1cccc(-c2cccc(C(=O)N3CCN(C(=O)Nc4ccccc4)CC3)c2)c1	–	–	inconclusive: 56.2 µM [inhibitor, partial curve, poor fit]
O=C(C1CCOCC1)N1CCC2(CC1)CC(N(Cc1ccccc1)C1CC1)CCO2 (stereo not given)	–	–	inconclusive: 79.4 µM [inhibitor, partial curve]
COc1ccccc1N1CCN(C(=O)C[C@@H]2C[C@@H](C(C)C)[C@H](CO)C=C2C)CC1	–	–	inconclusive: 63.1 µM [inhibitor, full curve, poor fit]
COCCn1c(C)cnc1CCNS(=O)(=O)c1cccc(OC)c1	inactive: -13.9%	–	–
Cc1[nH]nc2c1C(c1ccc(Cl)cc1)C(C#N)=C(N)O2 (stereo not given)	–	–	inconclusive: 89.1 µM [inhibitor, single point]
CN(C)CCN1CC[C@H]2CN(S(=O)(=O)c3ccccc3)CC[C@H]2CC1=O	–	–	inconclusive: 112 µM [inhibitor, partial curve, poor fit]
